Here are results for 42 compounds from ChEMBL document CHEMBL4888484, “Replenishing the malaria drug discovery pipeline: Screening and hit evaluation of the MMV Hit Generation Library 1 (HGL1) against asexual blood stage Plasmodium falciparum ,using a nano luciferase reporter read-out” (2022).

The % Inhibition is the drop in the measured response relative to a control, in per cent.

About 540 (0.36%) of roughly 150,000 compounds showed an effect of 50% or more. The list shows a part of the results.

The test system of this assay is Plasmodium falciparum. As to the kind of experiment: Primary screen in NF54 nanoGlo assay, in single point, at 2uM, 72h; a lower Z score goes with more inhibition. Format: functional, Erythrocyte. The settings on record: timepoint 72 hour.
On to `Cn1c(=O)[nH]c(=O)c2c1nc(N1CCN(c3ccccc3)CC1)n2Cc1cccc2ccccc12`, for which the “% Inhibition” value is -2% and the Z score came out at 0.32.

In the case of `Cc1n[nH]c(C)c1CNC(=O)[C@H]1CC(=O)N(Cc2ccncc2)C1`, the “% Inhibition” value is reported as -10% and the Z score is on record as 1.25.

For `Cc1ccc2c(c1)Oc1cc(Cl)c(S(=O)(=O)N3CCc4ccccc43)cc1C(=O)N2`, the “% Inhibition” value is recorded as -11% and the Z score stood at 1.58.

Take `Cc1nc(CNCc2c(C)nn(C)c2Cl)cs1`: the “% Inhibition” value is listed as -22% and the Z score was determined as 2.18.

Regarding `C/C(=C\c1ccccc1)CN1CCOCC1`, the “% Inhibition” value is reported as -9% and the Z score is recorded as 1.28.

On to `CC(C)(C)c1ccc2oc(CNC(=O)CCC3=NNC(=O)CC3)nc2c1`, for which the “% Inhibition” value was -16% and the Z score was found to be 2.07.

In the case of `Nc1nc(CCC(=O)N[C@H]2CC[C@H]2NC2CCCCCC2)cs1`, the “% Inhibition” value turned out to be 10% and the Z score is -1.48.

Take `CCOc1cc(C(=O)N(C)C)ccc1NCc1ccon1`: the “% Inhibition” value is given as -9% and the Z score came to 0.93.

For `C[C@@H](c1cc(F)cc(F)c1)N1CC2(CCNCC2)CCC1=O`, the “% Inhibition” value is given as -12% and the Z score stood at 2.33.

For `Clc1ccc(Oc2ncnc3[nH]ccc23)cc1Cl`, the “% Inhibition” value is -4% and the Z score turned out to be 0.51.

Take `O=C(Cn1cc(CC2(O)CCC2)nn1)C1(c2ccccc2)CC1`: the “% Inhibition” value is recorded as -7% and the Z score worked out at 0.93.

For the compound `O=C(c1ccccc1F)N(Cc1nccn1Cc1ccccc1Cl)CC1CC1`, the “% Inhibition” value is 20% and the Z score is -3.35.

Regarding `Cc1ccc(CN(CC(O)COC(C)(C)C)CC2CCCO2)o1` (centres undefined), the “% Inhibition” value is reported as -6% and the Z score was determined as 0.91.

As to `COc1c(CN2CCC(c3ccn[nH]3)CC2)c(C)nn1C`, the “% Inhibition” value is given as 3% and the Z score is on record as -0.53.

`Cc1cnn(CCC(=O)NC[C@H](O)c2c(Cl)cccc2Cl)c1`: the “% Inhibition” value is listed as -4% and the Z score is on record as 0.77.

In the case of `Cc1ccnc(Oc2ccc(NC(=O)N3CCCc4ccccc4C3)cc2)n1`, the “% Inhibition” value is listed as -9% and the Z score was found to be 0.94.

With `Cc1[nH]c2ccc(C(=O)N3CCC(Oc4ccc(CN(C)Cc5cnn(C)c5)cc4)CC3)cc2c1C`, the “% Inhibition” value is given as 1% and the Z score is recorded as -0.07.

On to `O=C(N[C@@H]1CCC[C@H]1OCc1ccccc1)c1ccn2nnnc2c1`, for which the “% Inhibition” value was -9% and the Z score turned out to be 1.77.

Turning to `Cc1nc2cccnc2n1-c1cccc(C(=O)N2CCN(c3ccccc3F)CC2)c1`, the “% Inhibition” value is on record as -4% and the Z score was found to be 0.54.

Turning to `CN=C(N)N[C@@H](C)c1ccc(C)c(F)c1`, the “% Inhibition” value worked out at 9% and the Z score is on record as -1.23.

As for `CN(CCc1ncon1)C(=O)[C@]1(C)CCCO1`, the “% Inhibition” value is listed as -14% and the Z score was 1.84.

As to `COc1ccc(S(=O)(=O)N2CCC3(CC2)C[C@@H](N2CCOCC2)CCO3)cc1`, the “% Inhibition” value is listed as -9% and the Z score is listed as 1.13.

With `CC(C)C(=O)N1CC(=O)N(C)[C@@H]1c1ccccc1`, the “% Inhibition” value was found to be 4% and the Z score is recorded as -0.7.

On to `COc1ccc(CCc2n[nH]c(NC(=O)c3cccnc3)n2)cc1`, for which the “% Inhibition” value stood at 11% and the Z score is on record as -1.62.

For the compound `COCCNC(=O)[C@H]1C[C@H](Oc2ccccc2)CN1S(=O)(=O)Cc1ccccc1`, the “% Inhibition” value is -9% and the Z score worked out at 1.7.

As to `CC[C@@H](C#N)NC(=O)c1c(C)cccc1C`, the “% Inhibition” value is listed as -6% and the Z score is listed as 0.66.

For the compound `CC(C)c1csc(CNC(=O)C2(N(C)C)CCCC2)n1`, the “% Inhibition” value was -17% and the Z score stood at 1.86.

Turning to `Oc1cccc(-c2nccn2C2CCCC2)c1`, the “% Inhibition” value worked out at 1% and the Z score is -0.17.

Regarding `O=C(OCC(F)(F)F)N1CCOCC1`, the “% Inhibition” value turned out to be 1% and the Z score was -0.08.

Consider `C[C@@H](Cn1cnc2ccccc2c1=O)NCc1csc(N)n1`, for which the “% Inhibition” value is -17% and the Z score is given as 2.16.

In the case of `CCC1CCC(CNC(=O)CCCn2cncn2)CC1` (centres undefined), the “% Inhibition” value was -1% and the Z score came out at 0.23.

`COC(=O)c1cc2n(n1)C[C@@](C)(C(=O)NC1CCC(C)CC1)N(c1ccc(C(C)C)cc1)C2=O` (some centres undefined): the “% Inhibition” value was -7% and the Z score was determined as 1.11.

`CCCC[C@H]1CN(c2ccccc2OC)C(=O)CN1Cc1coc(C)n1`: the “% Inhibition” value is -3% and the Z score is given as 0.53.

On to `CCC(C)(C)NC(=O)c1ccc(S(=O)(=O)N(C)C)cc1`, for which the “% Inhibition” value came out at 11% and the Z score is recorded as -1.32.

In the case of `CCC(CC)n1nc(C)cc1C(=O)N(C)c1cccnc1N(C)C`, the “% Inhibition” value is -8% and the Z score is 0.69.

For `Cn1nc2c(c1C(=O)NCC[C@H]1CCc3ccccc31)CS(=O)(=O)CC2`, the “% Inhibition” value is -12% and the Z score stood at 1.87.

For the compound `CCc1nc(CNC(=O)C2CC(O)(C3CCCCC3)C2)co1` (centres undefined), the “% Inhibition” value was 5% and the Z score is -0.58.

`O=S1(=O)CCCN1CCN1CCCC[C@H]1c1nc2ccccc2o1`: the “% Inhibition” value is 4% and the Z score is given as -0.64.

As to `COc1c(C(=O)Nc2ccccc2)oc2ccc(NC(=O)Cc3ccc(Cl)cc3)cc12`, the “% Inhibition” value is -12% and the Z score was 1.41.

Turning to `CC(=O)N[C@@H](C)c1cc(C)c(F)c(C)c1`, the “% Inhibition” value turned out to be 14% and the Z score is on record as -2.

`CCN(CC)CC(=O)N1CC[C@@]2(CCCN(Cc3cc(OC)ccc3F)C2=O)C1`: the “% Inhibition” value is -9% and the Z score worked out at 1.63.

Take `COc1ccc(CNC(=O)c2cc3n(n2)CCCN(Cc2ccc(C)cc2)C3=O)cc1`: the “% Inhibition” value is -6% and the Z score was 1.06.
